Test results published in the RNAGym collection of RNA variant scans (doi:10.1093/nar/gkz1192).
The source gives no read counts; variants with many changes may rest on few reads.

B1: CPEB3 Ribozyme (parent)
chain: UAACAGGGGGCCACAGCAGAAGCGUUCACGUCGCAGCCCCUGUCAGAUUCUGGUGAAUCUGCGAAUUCUGCUGUAUAUCUC

Variants of: B1
Assay: self-cleavage, relative activity (ratio to wild type); higher = more cleavage; in vitro, sequencing
In short: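 Relative activity compares each variant's cleaved/total read fraction with that of the unmutated ribozyme. To get these fractions, barcoded CPEB3 ribozyme libraries from rounds of error-prone PCR were transcribed with T7 RNA polymerase for 5 hours at 37°C and then given 15 min of DNase I treatment before EDTA was added. The RNAs were reverse transcribed with template switching and sequenced on Illumina, and DNA sequencing linked barcodes to variants. A minimum of 5 reads applied, and three batches were averaged.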
Variant U1C A18G G24A has a self-cleavage of 0.37.
Variant U1C A5U U41G U43A A56U has a self-cleavage of 0.29.
Variant U1C C23G C29U U41C U51C G63A U66A has a self-cleavage of 0.05.
Variant U1C A15C A28U A56G U60C has a self-cleavage of 0.47.
Variant U1C A5G C11U G36A U51G U66C A75U has a self-cleavage of 0.07.
With U1C A28U U74C the self-cleavage was 1.22.
With U1C A13C A18C the self-cleavage was 0.39.
With U1C A3G C39U U58C U67C the self-cleavage was 0.1.
U1C C29U U41C U49C gave a self-cleavage of 0.09.
Work on U1C A15U U31C U49C yielded a self-cleavage of 0.21.
In the case of U1C A13G A20G A45G A56G G70A, the self-cleavage is reported as 0.05.
U1C C12G A13C U31C A57G U76A gave a self-cleavage of 0.47.
With U1C A21U U26C U41C G42C U51A the self-cleavage was 0.06.
For U1C A18G C39U A57G, the self-cleavage was 0.07.
With U1C A13G A47G A57C A64G the self-cleavage was 0.43.
Variant U1C C27A A28G U49A has a self-cleavage of 0.25.
With U1C A3U A20G U41C C62U the self-cleavage was 0.1.
Work on U1C G6A U49C A64G U72C U80C yielded a self-cleavage of 0.16.
With U1C A18U G42A A47G C71G the self-cleavage was 0.14.
For U1C C23G U26C A28U A64G U78C U80C, the self-cleavage was 0.04.
In the case of U1C C40U U41G A57U U58C, the self-cleavage is reported as 0.05.
Variant U1C A15G G30C A56U has a self-cleavage of 0.27.
With U1C A18G A20U U72C the self-cleavage was 0.06.
With U1C A13G A47U U69C the self-cleavage was 0.06.
For U1C A15G U26A A56G U69C U80C, the self-cleavage was 0.12.
For U1C A28G G30A U41C U72A, the self-cleavage was 0.06.
With U1C A20U C40U U69G the self-cleavage was 0.19.
U1C A13G U60C U66C U80C gave a self-cleavage of 0.28.
U1C A45G U69C A77G gave a self-cleavage of 0.28.
In the case of U1C A5G U49A, the self-cleavage is reported as 0.14.
U1C C11G A13C U25C U43C U76A showed a self-cleavage of 0.36.
U1C C14A C40U A45U U51A U60C U72C gave a self-cleavage of 0.09.
Variant U1C A13C A75U has a self-cleavage of 0.63.
U1C A45U U49C U72C U76C gave a self-cleavage of 0.15.
For U1C C40A A64U, the self-cleavage was 0.17.
In the case of U1C A13U U41C, the self-cleavage is reported as 0.48.
Work on U1C A3G A21G A28U yielded a self-cleavage of 0.62.
Variant U1C A5U A45C U58C U72A has a self-cleavage of 0.06.
Work on U1C A18G U26C U51A A57G A65G yielded a self-cleavage of 0.
Variant U1C A20G A35G U58C has a self-cleavage of 0.81.
Variant U1C A15G G19C A20G A28G G70A has a self-cleavage of 0.41.
U1C C29U U72C gave a self-cleavage of 0.65.
U1C A18U C34U G42A A45G U54C U67A showed a self-cleavage of 0.1.
Variant U1C A3G A20G U43C A65G has a self-cleavage of 0.04.
In the case of U1C A15U U31C A45U U60C, the self-cleavage is reported as 0.05.
Work on U1C A20U U41A U48C U74A A75G yielded a self-cleavage of 0.13.
With U1C C14G A47G U51A G61U U67C the self-cleavage was 0.08.
For U1C A20U A35U, the self-cleavage was 0.22.
In the case of U1C A20U C23U A56U U58G U67C, the self-cleavage is reported as 0.06.
For U1C A18G C23U U54C U67C U80C, the self-cleavage was 0.12.
U1C A15C A21C C40U A56G showed a self-cleavage of 0.05.
U1C A5G A21U U26C C39U U48C U67C showed a self-cleavage of 0.14.
U1C A5G U26C C62A gave a self-cleavage of 0.39.
Variant U1C A13G U25C A65U G70A has a self-cleavage of 0.03.
U1C A13G U54A A65G showed a self-cleavage of 0.35.
In the case of U1C A28C U54C A57G U76A, the self-cleavage is reported as 0.24.
U1C A13G U80A gave a self-cleavage of 1.14.
U1C C4U U25C C29U A45G gave a self-cleavage of 0.09.
Work on U1C G7A A18U yielded a self-cleavage of 0.27.
U1C A21G A28G showed a self-cleavage of 0.35.
U1C C34U U67C U69C showed a self-cleavage of 0.06.
U1C A13G A20G gave a self-cleavage of 0.79.
For U1C C23A A47U, the self-cleavage was 0.05.
For U1C G6A C40U U51C, the self-cleavage was 0.07.
U1C C12U A28G U31G gave a self-cleavage of 0.57.
With U1C A18U A56G U60C the self-cleavage was 0.16.
U1C A5G C40U showed a self-cleavage of 0.72.
U1C A13U U25C U31G showed a self-cleavage of 0.07.
For U1C C12U A15C A45G A57G U67A C79A, the self-cleavage was 0.16.
U1C A56G U80A showed a self-cleavage of 1.05.
U1C A35G U43A showed a self-cleavage of 1.33.
Work on U1C A15G A21U yielded a self-cleavage of 0.14.
U1C A15G C29A A56G U60C showed a self-cleavage of 0.07.
With U1C A21U U58A the self-cleavage was 0.39.
In the case of U1C A35G U78C, the self-cleavage is reported as 1.06.
U1C A3U A15G A56G U80C gave a self-cleavage of 0.75.
With U1C A3G C11U A18U A64G A65G U78C the self-cleavage was 0.04.
In the case of U1C C12A U26C U48C A65G G73U A75U, the self-cleavage is reported as 0.02.
For U1C C11A U25C U26A A28G U80C, the self-cleavage was 0.04.
In the case of U1C A20U G24A U41A A45G U51C, the self-cleavage is reported as 0.02.
U1C C29U U43C A45G U69C showed a self-cleavage of 0.15.
U1C A28G C38U showed a self-cleavage of 0.59.
In the case of U1C A18G A21G U51A G63U, the self-cleavage is reported as 0.22.
Work on U1C A21U U48C U54C A57G A65G yielded a self-cleavage of 0.03.
